Assay results reported in the DeepSol protein solubility set.

Assay: soluble on expression in E. coli; label from the status in PepcDB or PDB records

MEGLKQLKDLPAETPDGKKVMLAANIGTPKDVASALANGAEGVGLFRTEFLYMDRNSLPSEEEQFEAYKEVVEKMGGRPVTIRTLDIGGDKELPYLDMPKEMNPFLGYRAIRLCLDRPDIFKTQLRAILRASAYGNVQIMYPMISSVEEVRKANSILEEVKAELDREGVKYDKEIKVGIMVEIPSAAVTADILAKEVDFFSIGTNDLTQYTLAVDRMNEHVKEYYQPFHPAILRLVKMVIDAAHKEGKFAAMCGEMAGDPLAAVILLGLGLDEFSMSATSIPEIKNIIRNVEYEKAKEIAEKALNMSEAREIEKMMKDVIKDIG
soluble on expression in E. coli: soluble

QVQLVQSGAEVKKPGSSVKVSCKASGGTFSNYAINWVRQAPGQGLEWMGNIEPYFGTANYAQKFQGRVTITADESTSTAYMELSSLRSEDTAVYYCARYFMSYKHLSDYWGQGTLVTVSSASTKGPSVFPLAPSSKSTSGGTAALGCLVKDYFPEPVTVSWNSGALTSGVHTFPAVLQSSGLYSLSSVVTVPSSSLGTQTYICNVNHKPSNTKVDKKVEPKSEFEQKLISEEDLNGAPHHHHHH
soluble on expression in E. coli: soluble

GERVKEDSFCCVISMHDGIVLYTTPSITDVLGYPRDMWLGRSFIDFVHLKDRATFASQITTGIPIAESRGSVPKDAKSTFCVMLRRYRGLKSGGFGVIGRPVSYEPFRLGLTFREAPEEARPDNYMVSNGTNMLLVICATPIKSSYKVPDEILSQKSPKFAIRHTATGIISHVDSAAVSALGYLPQDLIGRSIMDFYHHEDLSVMKETYETVMKKGQTAGASFCSKPYRFLIQNGCYVLLETEWTSFVNPWSRKLEFVVGHHRVFQGPKQCNVFEAAPTCKLKISEEAQSRNTRIKEDIVKRLAETVSRPSDTVKQEVSRRCQALASFMETLMDEVSRADLKLELPHENELTVSERDSVMLGEISPHH
soluble on expression in E. coli: soluble

MATVYDVPADLLIKRVAERLKDMVAPPEWAKYVKTGVHKERSPEQDDWWYLRLASIFRRVYIDGPVGIERLRTFYGGRKRRGSKPPKFRKGSGAIVRNALHQLEQLGFVKKTREGRVVTPMGRSFLDKVATELKSELVSEIPALEKY
soluble on expression in E. coli: not soluble

MGSDKIHHHHHHMITIKKGLDVPVKGAPQQVIHDGPSIKTVATLGEEFVGMRPTMFVKVGDRVKKGQVIFEDKKNPGVIFTAQAAGVVKEINRGEKRVLQSVVIDVDGYDQETFTVYPATEFASLARENVVKNLVDSGLWTALRTRPFSKVPAIDSEPSAIFVSAMDTNPLAANPEIVIGEQSEAFKNGLTILSRLTSGEVFVSKAPGANIPVDSNATVTEFAGKHPAGLVGTHIHFLKSASAERFVWHVGYQDVIAIAKLFTTGEIDNTRVISLAGPAATNPRLVRTVLGASTAELSAGETAEGELRVVSGSLLMGATASAVHGYLGRYNVQVSLILEGREKEFIGYMYPGPNKFSVTRAYMSHFFSSKLFSMTTTTNGSSRAMVPIGNFERVMPLDILPTLFLRDICSGDTDGAQQLGALELDEEDLALCTFVCPGKTDYGVILRDCLTTIEKEG
soluble on expression in E. coli: not soluble

ASMTDQQAEARAFLSEEMIAEFKAAFDMFDADGGGDISTKELGTVMRMLGQNPTKEELDAIIEEVDEDGSGTIDFEEFLVMMVRQMKEDAKGKSEEELANCFRIFDKNADGFIDIEELGEILRATGEHVTEEDIEDLMKDSDKNNDGRIDFDEFLKMMEGVQ
soluble on expression in E. coli: soluble

ASVPREVEHFSRYSPSPLSMKQLLDFGSENACERTSFAFLRQELPVRLANILKEIDILPTQLVNTSSVQLVKSWYIQSLMDLVEFHEKSPDDQKALSDFVDTLIKVRNRHHNVVPTMAQGIIEYKDACTVDPVTNQNLQYFLDRFYMNRISTRMLMNQHILIFSDSQTGNPSHIGSIDPNCDVVAVVQDAFECSRMLCDQYYLSSPELKLTQVNGKFPDQPIHIVYVPSHLHHMLFELFKNAMRATVEHQENQPSLTPIEVIVVLGKEDLTIKISDRGGGVPLRIIDRLFSYTYSTAPTPVMDNSRNAPLAGFGYGLPISRLYAKYFQGDLNLYSLSGYGTDAIIYLKALSSESIEKLPVFNKSAFKHYQMSSEADDWCIPSREPKNLAKEVAM
soluble on expression in E. coli: soluble
